{"source": "the RNAGym collection of RNA variant scans (doi:10.7554/elife.90254)", "parents": {"B1": {"name": "LINE1-full (parent)", "chain": "UACGUAGGUGGUUUUCCCCUGAUAGUGCUAAGGGGGCCUGGAAGUUUGGACUGGGCAGAGCUCAACACAGCGUGGCAAAGUGGCUGUGGCUAGACUGCCUCUCUGGAUUCCUCGUCACUCAGCAGGGCAUCUCUGAGAGAAAUGCC"}}, "note": "The source gives no read counts; variants with many changes may rest on few reads."}
{"variants_of": "B1", "assay": "self-cleavage, relative activity (ratio to wild type); higher = more cleavage; in vitro, sequencing; the parent is a self-cleaving ribozyme"}
{"variant": "A31G G60U C113U", "self-cleavage": 0.04}
{"variant": "A6G A94G A121U", "self-cleavage": 0.26}
{"variant": "U104A U115A A129U A142G", "self-cleavage": 0.39}
{"variant": "U13C A59G U81A A141G", "self-cleavage": 0.19}
{"variant": "U39G U46C U108C", "self-cleavage": 1.25}
{"variant": "U23C G33U G89A U108C", "self-cleavage": 0.06}
{"variant": "C18A A79G U115C", "self-cleavage": 1.26}
{"variant": "U14C A30G A124G", "self-cleavage": 0.84}
{"variant": "U14C U26A U100G U143C", "self-cleavage": 2.45}
{"variant": "U87C U104C G105U G114A", "self-cleavage": 0.25}
{"variant": "U9G A59C A64U U134C", "self-cleavage": 0.75}
{"variant": "U13C A31G U108C A142C", "self-cleavage": 0}
{"variant": "U12C U46C C84U A121U", "self-cleavage": 0.24}
{"variant": "U13A U29C U62C U109C A138G", "self-cleavage": 0.31}
{"variant": "A57U A79G U96A A138G", "self-cleavage": 0.95}
{"variant": "A42G A65U U85A U96C U112A A121U A141G", "self-cleavage": 0.04}
{"variant": "U13C A43U U143C", "self-cleavage": 2.11}
{"variant": "U12G A22G C90U C101A", "self-cleavage": 0.11}
{"variant": "U29C G33A U85C U132A", "self-cleavage": 0.23}
{"variant": "A31G G36C A67G U115C", "self-cleavage": 1.53}
{"variant": "G7C U14C A65G U85C", "self-cleavage": 1.67}
{"variant": "G35A U62C A69G", "self-cleavage": 0.03}
{"variant": "A94G A107U A129G", "self-cleavage": 0.19}
{"variant": "U14C U26C G41U", "self-cleavage": 1.28}
{"variant": "U12A G40A U46C A124G A136U", "self-cleavage": 0.6}
{"variant": "A67G A92U C95U", "self-cleavage": 0.03}
{"variant": "U1C G53U A141G", "self-cleavage": 1.21}
{"variant": "A6U U15C C18U U102A", "self-cleavage": 1.02}
{"variant": "U13C A22G U73C A117G", "self-cleavage": 0}
{"variant": "A117G G125A A129G", "self-cleavage": 0.54}
{"variant": "G33A G58A C63U", "self-cleavage": 0.16}
{"variant": "A43G A67U U87A U100C", "self-cleavage": 0.82}
{"variant": "G32A G55A U100C U119C U130A", "self-cleavage": 0}
{"variant": "G7A A67C U112A", "self-cleavage": 0.03}
{"variant": "A43G U52A A69G", "self-cleavage": 0.3}
{"variant": "A22G U26C C68U A136G", "self-cleavage": 0.55}
{"variant": "G25A U46C U104C", "self-cleavage": 1.56}
{"variant": "A43G U45C G97U", "self-cleavage": 0.09}
{"variant": "A2G U85C U115A", "self-cleavage": 0}
{"variant": "A69G U87G A138G", "self-cleavage": 0}
{"variant": "U14C U26A U96A", "self-cleavage": 0.05}
{"variant": "G35A C56U U119A", "self-cleavage": 0.16}
{"variant": "U26A U62A U73C", "self-cleavage": 0.09}
{"variant": "U1C A57G U85A", "self-cleavage": 0.05}
{"variant": "U20C A24U A64U A69G U100C U143C", "self-cleavage": 1.35}
{"variant": "U45C G49A C63U U73A A141G", "self-cleavage": 0.24}
{"variant": "U14A U91G U108C C113U U115C", "self-cleavage": 0}
{"variant": "A6G G41A G49A U73A G144A", "self-cleavage": 0.97}
{"variant": "C18A A43G A67G U85A", "self-cleavage": 0.04}
{"variant": "U12C U15A U102C A138G", "self-cleavage": 0.74}
{"variant": "U39A A57U U62C A77U C103U", "self-cleavage": 0.07}
{"variant": "U102C U119C A142G U143C", "self-cleavage": 2.16}
{"variant": "A50G G75U U85C", "self-cleavage": 0.05}
{"variant": "U9A U14C U96A", "self-cleavage": 0}
{"variant": "A65G A69G U112C A142G", "self-cleavage": 0}
{"variant": "U45G G55C U102C", "self-cleavage": 0}
{"variant": "U9A U20C C71U A138G A141G", "self-cleavage": 2.04}
{"variant": "A64U A65C G72A", "self-cleavage": 0.03}
{"variant": "U45C U96A A136G", "self-cleavage": 0.06}
{"variant": "A43G U62C G82A", "self-cleavage": 0.04}
{"variant": "U23C A30U G44A A59G", "self-cleavage": 2.4}
{"variant": "U1C U13G U73A U87A U109C A141G", "self-cleavage": 0.03}
{"variant": "U52A U85A U104A", "self-cleavage": 0.1}
{"variant": "U46C U62C G72A G125U A136U", "self-cleavage": 0.02}
{"variant": "A2G A24C U46C U85A", "self-cleavage": 0}
{"variant": "U39C A64G C66A U91C", "self-cleavage": 0.19}
{"variant": "U39A A124C A136U A138G", "self-cleavage": 1.84}
{"variant": "A22C U134C A138U", "self-cleavage": 1.76}
{"variant": "U20C G48A U81C", "self-cleavage": 1.38}
{"variant": "U20C A67G U130A", "self-cleavage": 1.92}
{"variant": "G33A C37A U91G A124U", "self-cleavage": 0.02}
{"variant": "A30U A65G U73A U96A", "self-cleavage": 0.05}
{"variant": "U39A C63A A69G", "self-cleavage": 0.07}
{"variant": "A77G A129U U143C", "self-cleavage": 2.22}
{"variant": "U85A A124C A136G A138G", "self-cleavage": 0.22}
{"variant": "A22U U47A U104A U115A A121G A140G", "self-cleavage": 0.53}
{"variant": "C113U C131A U132A", "self-cleavage": 0.84}
{"variant": "U9A A24G A65G A69G A117U", "self-cleavage": 0}
{"variant": "U20C G74A A107G", "self-cleavage": 1.7}
{"variant": "C37G U100A U104C", "self-cleavage": 1.43}
{"variant": "U5A U62A A79G G114A", "self-cleavage": 0.07}
{"variant": "A22G A77G U119C", "self-cleavage": 1.95}
{"variant": "G7U A22G U91C", "self-cleavage": 0.31}
